This is an account of results in PubChem BioAssay AID504648 (National Center for Advancing Translational Sciences (NCATS), 2011).

Structures are written as SMILES. The campaign covered roughly 390,000 compounds. About 610 (0.16%) were called active. Not shown: some 4% with an inconclusive outcome. Calls follow the shape of the dose curve; as a rule, active = well fitted inhibition curve with a large enough effect; inconclusive = small, poorly fitted or top-dose-only effect, or effect the other way, or another doubt; inactive = no such curve, though single readings can be large or run the other way. The entries are a selection whose mix differs from that of the whole data set.
% is scaled to controls: 0 for no effect and ±100 for the full control effect; potency is read from the fitted curve at half-maximal effect.

The nature of this assay: Nrf2 qHTS screen for inhibitors: counterscreen for cytotoxicity. Particulars: A549 ARE-Fluc cells, CellTiter-Fluor viability, 18-24 h; series mostly up to 46 µM; activity change, negative = cytotoxicity: at the top concentration. The method, boiled down:
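A549 ARE_Fluc cells in 5% FBS OPTI-MEM were exposed to compounds in concentration-response for 18-24 h at 37 deg C. Viability was read by CellTiter-Fluor fluorescence (Ex 405/Em 525) after 30 min, before the luciferase read.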
(In general: Quantitative high-throughput screening tests each substance at several concentrations.)
As for `COc1ccc(CNC(=O)c2nc(S(=O)(=O)Cc3ccccc3)ncc2Cl)cc1`, the “activity change, negative = cytotoxicity” value is inactive: -19.4%.

`Cc1cccc(NS(=O)(=O)c2ccc3nc(-c4ccccc4)[nH]c3c2)c1C`: the “activity change, negative = cytotoxicity” value is inactive: 2.58%.

As to `CCCCCn1c(=N)n(CC(O)COc2ccccc2OC)c2ccccc21` (stereo not given), the “activity change, negative = cytotoxicity” value is inactive: -21.3%.

As for `CCOC(=O)c1cc2c(=O)n3ccccc3nc2n(Cc2ccco2)c1=NC(=O)c1ccccc1OC`, the “activity change, negative = cytotoxicity” value is inactive: -13.4%.

For `O=[N+]([O-])c1ccc(O)c2ncccc12`, the Potency was active: 13 µM.

In the case of `CC(C)(C)c1ccc(-c2noc(CCC(=O)NCc3ccco3)n2)cc1`, the Potency was active: 11.6 µM.

For `C=CC[C@@H](CC(=O)N[C@H](CO)Cc1ccccc1)C(=O)N[C@@H](COC(=O)[C@@H](CC=C)Cc1ccc(F)cc1)Cc1c[nH]c2ccccc12`, the “activity change, negative = cytotoxicity” value was inactive: -6.51%.

As for `C=CCC[C@@H](Cc1ccc(F)cc1)C(=O)OC[C@@H](NC(=O)[C@@H](CC=C)CC(=O)N[C@H](CO)Cc1ccccc1)C(C)(C)C`, the “activity change, negative = cytotoxicity” value was inactive: -27.1%.

For the compound `CC1CCN(S(=O)(=O)c2ccc3c(c2)C(=NO)c2cc(S(=O)(=O)N4CCC(C)CC4)ccc2-3)CC1`, the Potency was active: 5.17 µM.

On to `COc1ccccc1C(=O)Nc1cc(-c2ccc(C)cc2)no1`, for which the “activity change, negative = cytotoxicity” value is inactive: 17.5%.

For `O=C(CN1CCN(Cc2ccc(F)cc2Cl)C1=O)NCCc1ccc(Cl)cc1`, the “activity change, negative = cytotoxicity” value was inactive: -2.61%.

In the case of `COc1cc2c(=O)n(CCC(=O)NCC3CCCO3)c(=O)n(CC(=O)Nc3ccc(F)cc3)c2cc1OC` (stereo not given), the “activity change, negative = cytotoxicity” value is inactive: -19.2%.

As for `C=CCC[C@@H](Cc1ccc(F)cc1)C(=O)OC[C@H](Cc1c[nH]c2ccccc12)NC(=O)[C@@H](CC=C)CC(=O)N[C@@H](CO)Cc1ccccc1`, the “activity change, negative = cytotoxicity” value was inactive: -10%.

Regarding `C=CC[C@H](CC(=O)N[C@H](CO)Cc1ccccc1)C(=O)N[C@@H](COC(=O)[C@@H](CC=C)Cc1ccc(F)cc1)Cc1c[nH]c2ccccc12`, the “activity change, negative = cytotoxicity” value was inactive: 0.926%.

For `C[C@]12CCC(=O)C[C@@H]1CC[C@@H]1[C@@H]2CC[C@]2(C)[C@@H](C(=O)COC(=O)CCC(=O)O)CC[C@@H]12`, the “activity change, negative = cytotoxicity” value is inactive: 0.606%.

On to `CCOC(=O)/C(=C/C=C1\Sc2cc(OCC)c(OCC)cc2N1CC)C(C)=O`, for which the “activity change, negative = cytotoxicity” value was inactive: -29.1%.

Regarding `C=CC[C@@H](CC(=O)N[C@@H](CO)Cc1ccccc1)C(=O)N[C@H](COC(=O)[C@@H](CC=C)Cc1ccc(F)cc1)Cc1c[nH]c2ccccc12`, the “activity change, negative = cytotoxicity” value is inactive: -4.88%.

As for `CCc1nn2c(N)c(/C=C3\C=Nc4ccccc43)c(=O)nc2s1`, the “activity change, negative = cytotoxicity” value is inactive: -13.4%.

`CCOc1ccccc1CNC(=O)CCn1ccc2cc(S(=O)(=O)N3CCCCC3)ccc21`: the “activity change, negative = cytotoxicity” value is inactive: 0.52%.

On to `CCOCCCn1c(=NC(=O)c2cccnc2)c(C(=O)OCC)cc2c(=O)n3ccccc3nc21`, for which the “activity change, negative = cytotoxicity” value was inactive: -16.6%.

As for `C=CC[C@@H](CC(=O)N[C@@H](CO)Cc1ccccc1)C(=O)N[C@H](C)COC(=O)[C@@H](CC=C)Cc1ccc(F)cc1`, the “activity change, negative = cytotoxicity” value is inactive: -7%.

For the compound `N=C(N)SCc1nc2ccccc2c(=O)n1-c1ccccc1`, the “activity change, negative = cytotoxicity” value was inactive: -3.5%.

In the case of `CS(=O)(=O)N1CCN(c2ccc(NC(=O)c3ccc([N+](=O)[O-])o3)cc2)CC1`, the Potency was active: 13 µM.

Take `CC(C)(C)OC(=O)C[C@H]1C/C=C\C[C@@H](CC(=O)N(CCO)Cc2ccccc2)C(=O)NC[C@H](c2ccccc2)OC1=O`: the “activity change, negative = cytotoxicity” value is inactive: -3.59%.

Regarding `Cc1cccc(CS(=O)(=O)Cc2ccc(C(=O)NC(C)c3ccccc3)o2)c1` (stereo not given), the “activity change, negative = cytotoxicity” value is inactive: 11.2%.

`COc1cc(C(CC(=O)N2CCCC2)c2c(OC)cc(OC)c3ccc(=O)oc23)cc(OC)c1OC` (stereo not given): the “activity change, negative = cytotoxicity” value was inactive: -14.6%.

`CC(=NNc1nc2ccccc2o1)c1cc2ccccc2cn1`: the Potency was active: 10.3 µM.

With `CCN(C(=O)C(C)N1C(=O)/C(=C/c2ccco2)SC1=S)C1CCS(=O)(=O)C1` (stereo not given), the Potency is active: 14.6 µM.

With `Cc1ccccc1-c1cc(C(=O)Nc2sc(C(=O)OC(C)C)c(C)c2C#N)c2ccccc2n1`, the Potency is active: 7.31 µM.

As to `COc1ccc(C2CC(=O)Oc3c(C(CCN4CCCCC4)c4ccc(N(C)C)cc4)c(OC)cc(OC)c32)cc1` (stereo not given), the “activity change, negative = cytotoxicity” value was inactive: -25.5%.

In the case of `C=CC[C@@H](CC(=O)N[C@@H](CO)Cc1ccccc1)C(=O)N[C@@H](COC(=O)[C@@H](CC=C)Cc1ccc(F)cc1)Cc1c[nH]c2ccccc12`, the “activity change, negative = cytotoxicity” value was inactive: -18.2%.

As to `CC1=Nc2cc(C(=O)N3CCCCC3)ccc2Sc2ccc(C)cc21`, the “activity change, negative = cytotoxicity” value was inactive: 0.663%.

On to `CC(=C\c1ccccc1)/C=C1/SC(=S)N(C(C(=O)O)C(C)C)C1=O` (stereo not given), for which the “activity change, negative = cytotoxicity” value was inactive: -14.9%.

As for `O=C1C=C(NCCc2cc(Br)c(O)c(Br)c2)C(=O)c2ncccc21`, the Potency was active: 23.1 µM.

In the case of `CCCCc1ccc(-c2csc(/C(C#N)=C\c3ccco3)n2)cc1`, the “activity change, negative = cytotoxicity” value was inactive: -11.3%.

On to `CC1=NN(c2ccccc2)C(=O)C1/C=C1\NC(=S)NC1=O` (stereo not given), for which the “activity change, negative = cytotoxicity” value is inactive: -12.2%.

Consider `Cc1cc(Br)ccc1SCC(=O)OCC(O)=C(C#N)c1nc2ccccc2[nH]1`, for which the “activity change, negative = cytotoxicity” value was inactive: 0.396%.

For the compound `CC(C)(C)OC(=O)C[C@H]1C/C=C\C[C@H](CC(=O)N(CCO)Cc2ccccc2)C(=O)NC[C@H](c2ccccc2)OC1=O`, the “activity change, negative = cytotoxicity” value is inactive: -4.98%.

For the compound `CN1CCN(c2ccc(Nc3ccnc4cc(Cl)ccc34)cc2)CC1`, the Potency is active: 6.51 µM.

`O=C(Nc1cccc(S(=O)(=O)Nc2ccc(Cl)cc2)c1)c1ccc2c(c1)OCCO2`: the Potency is active: 16.4 µM.
